Test results: patent publication US20170037136A1 (Janssen / Centocor, published 2017)
Positions count from the first letter of the chain named. Where two headings read alike, the source gives them in different places. Each block holds one binder with its values, some of them ahead of it.

Legend:
[1] = target: T1, shCD154-his (soluble human CD154, His6 fusion) (human, UniProt P29965 113-261); experiment: SPR (ProteOn XPR36) as in Example 1, human CD154; mean ± SD, n = 8
T1 construct: predominantly trimer
T1 sequence: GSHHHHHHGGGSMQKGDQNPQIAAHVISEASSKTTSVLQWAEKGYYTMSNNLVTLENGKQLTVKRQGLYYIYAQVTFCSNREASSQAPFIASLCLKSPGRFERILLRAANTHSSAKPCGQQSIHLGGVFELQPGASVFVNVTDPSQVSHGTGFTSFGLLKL
Method: Affinity measurements using Surface Plasmon Resonance (SPR) were performed using a ProteOn XPR36 system (BioRad). […] Approximately 4700 RU (response units) of test antibodies were immobilized. The kinetic experiments were performed at 25° C. in running buffer (DPBS+0.03% polysorbate P20+100 μg/ml BSA). […] The association phase was monitored for 3 minutes at 50 μL/min followed by 15 minutes of buffer flow (dissociation phase). The chip surface was regenerated with two 18 second pulses of 100 mM H₃PO₄ (Sigma, Cat#7961) at 100 μL/min.
The collected data were processed using ProteOn Manager software. First, the data was corrected for background using inter-spots. Then, double reference subtraction of the data was performed by using the buffer injection for analyte injections. The kinetic analysis of the data was performed using a Langmuir 1:1 binding model.

[2] = target: T1, shCD154-his (soluble human CD154, His6 …); experiment: cell-based or functional assay
[3] = target: T1, shCD154-his (soluble human CD154, His6 …); experiment: cell-based or functional assay; remark: listed apart in the source
[4] = target: shCD154-ILZ (soluble human CD154, leucine zipper fusion) (human); experiment: cell-based or functional assay

Kd [1]: 0.031 nM
koff [1]: 7.81e-05 s⁻¹
kon [1]: 2.53e+06 M⁻¹ s⁻¹
NF-κB SEAP reporter gene assay; IC50 [2]: 2.32 nM
NF-κB SEAP reporter gene assay; IC50 [3]: 2.15 nM
NF-κB SEAP reporter gene assay; IC50 [4]: 1.21 nM
B1: C4LB231 (antibody, human IgG1, kappa)
heavy: QVQLVQSGAEVKKPGSSVKVSCKASGGTFSSYGISWVRQAPGQGLEWMGWISPIFGNTNYAQKFQGRVTITADESTSTAYMELSSLRSEDTAVYYCARSRYYGDLDYWGQGTLVTVSSASTKGPSVFPLAPSSKSTSGGTAALGCLVKDYFPEPVTVSWNSGALTSGVHTFPAVLQSSGLYSLSSVVTVPSSSLGTQTYICNVNHKPSNTKVDKKVEPKSCDKTHTCPPCPAPEAAGASSVFLFPPKPKDTLMISRTPEVTCVVVDVSAEDPEVKFNWYVDGVEVHNAKTKPREEQYNSTYRVVSVLTVLHQDWLNGKEYKCKVSNKALPSSIEKTISKAKGQPREPQVYTLPPSREEMTKNQVSLTCLVKGFYPSDIAVEWESNGQPENNYKTTPPVLDSDGSFFLYSKLTVDKSRWQQGNVFSCSVMHEALHNHYTQKSLSLSPGK
light: DIQMTQSPSSLSASVGDRVTITCRASQSISSYLNWYQQKPGKAPKLLIYYANSLQSGVPSRFSGSGSGTDFTLTISSLQPEDFATYYCQQSDSIPWTFGQGTKVEIKRTVAAPSVFIFPPSDEQLKSGTASVVCLLNNFYPREAKVQWKVDNALQSGNSQESVTEQDSKDSTYSLSSTLTLSKADYEKHKVYACEVTHQGLSSPVTKSFNRGEC
notes: C4LB89 variable regions on IgG1sigma/kappa; also called C4LB89 VH on IgG1sigma

Kd [1]: 0.0352 nM
koff [1]: 8.89e-05 s⁻¹
kon [1]: 2.54e+06 M⁻¹ s⁻¹
B2: C4LB232 (antibody, human IgG1, kappa)
heavy: B1 heavy with M253Y, S255T, T257E
light: B1 light
notes: also called C4LB89 VH on IgG1sigmaYTE
